Assay results taken from the supplement of paper PMC7125110.
± gives the standard error. This sample is rich in variants without activity.

B1: glmS ribozyme (parent)
chain: AUAAAAGCGCCAGAACUACAGAAAUGUAGUUGACGAGGAGGAGGUUUAUCGAAUUUUCGGCGGAUGCCUCCAAA

Columns and labels:
Conditions in all cases: with glucosamine-6-phosphate
[1] = variants of: B1; assay: self-cleavage kobs at 640 uM GlcN6P; higher = faster cleavage; RNA array
Procedure, shortened: (§1)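 Barcoded ribozyme variants, transcribed in situ by E. coli RNA polymerase on sequenced MiSeq chips, were followed via a hybridised Cy3 probe at 37 °C. Glucosamine-6-phosphate ranged from 40 μM to 10 mM in HEPES/KCl/Mg(OAc)2 buffer. kobs came from decay fits to per-tile medians, and kcat and KM from weighted Michaelis–Menten fits.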

[2] = variants of: B1; assay: self-cleavage kobs at 160 uM GlcN6P; higher = faster cleavage; RNA array
Procedure, shortened: as §1

[3] = variants of: B1; assay: self-cleavage kobs at 2500 uM GlcN6P; higher = faster cleavage; RNA array
Procedure, shortened: as §1

[4] = variants of: B1; assay: self-cleavage kobs at 10000 uM GlcN6P; higher = faster cleavage; RNA array
Procedure, shortened: as §1

Variant	self-cleavage kobs at 640 uM GlcN6P [1] [s⁻¹]	self-cleavage kobs at 160 uM GlcN6P [2] [s⁻¹]	self-cleavage kobs at 2500 uM GlcN6P [3] [s⁻¹]	self-cleavage kobs at 10000 uM GlcN6P [4] [s⁻¹]
A12U G29U G59U C68G C70A	4.93e-05 ± 2.3e-05	–	–	–
C10G G41C G63U	< 1e-05	< 1e-05	–	–
A12U G29C G51A G60U C68A	< 1e-05	–	–	–
C11G U49C	< 1e-05	–	–	–
A12C A33U G38C	< 1e-05	< 1e-05	< 1e-05	–
C10U U56G G63U	< 1e-05	–	–	–
C11U A14U A39G G44A G51C	< 1e-05	–	–	–
G13A C16U A48U U55A	< 1e-05	–	–	–
C11G G29U C34G	< 1e-05	–	< 1e-05	–
C11G C16A G43U C61G	< 1e-05	–	< 1e-05	–
A12U A48U U49A	< 1e-05	–	–	–
G13A G43U U56G G60A C61U	< 1e-05	–	–	–
A12G G32A A36U	< 1e-05	< 1e-05	–	< 1e-05
C10U U31A G63C	< 1e-05	< 1e-05	< 1e-05	–
C11G G40C C58U C67U	< 1e-05	–	< 1e-05	–
C11A A15U A36G C70U	< 1e-05	–	–	–

Variant	self-cleavage kobs at 640 uM GlcN6P [1] [s⁻¹]	self-cleavage kobs at 160 uM GlcN6P [2] [s⁻¹]	self-cleavage kobs at 2500 uM GlcN6P [3] [s⁻¹]	self-cleavage kobs at 10000 uM GlcN6P [4] [s⁻¹]
C11G U47C	< 1e-05	< 1e-05	–	< 1e-05
A12U C68A	7.24e-05 ± 3.4e-05	–	2.89e-05 ± 1.2e-05	–
A12U C68G	8.22e-05 ± 7.3e-06	5.38e-05 ± 6.4e-06	0.00016 ± 1.2e-05	0.000186 ± 1.6e-05
A12C U30C A36U	< 1e-05	–	< 1e-05	< 1e-05
C10G C11G A39C G44C U55C	< 1e-05	–	–	–
C10U U31C G38U G40C G44A C68G	< 1e-05	< 1e-05	< 1e-05	< 1e-05
C10G G13U	< 1e-05	< 1e-05	< 1e-05	–
A12G G35U U65C	< 1e-05	–	–	–
C10G A39C A64G	< 1e-05	< 1e-05	< 1e-05	–
A12C G29A A39G A52U U69A	< 1e-05	–	–	–
C11A A52U C61G	< 1e-05	–	–	–
C11A A48U C70A	9.74e-05 ± 2.9e-05	–	–	–
C11G U30G A42U A53U G63U U65A C68G	< 1e-05	–	–	–
C10U A15C G43U G63U	< 1e-05	–	< 1e-05	–
A12C G38U U46A A48C	< 1e-05	–	–	–
